According to the supplement of paper PMC4604168 (melanoma cell lines):
The other results are listed elsewhere or left out. Most values come without repeats; read them as rough.
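Further: cells treated in 1,536-well plates, then fixed and DAPI-stained, with nuclei counted from automated high-throughput microscope images.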

What follows are compounds tested on A2058 (assay: cell count relative to DMSO control; melanoma cells; higher = more viable cells). Details: library dose: standard library concentration; 72 h.
`Cn1cc(C2=C(c3cn(C4CCN(Cc5ccccn5)CC4)c4ccccc34)C(=O)NC2=O)c2ccccc21` [Enzastaurin] + O=C(O)c1ccc2c(c1)nc(Nc1cccc(Cl)c1)c1ccncc12 [CX4945] (first compound 4 µM, partner dose 2 µM) showed a cell count of 77.2%. `N.N.[Cl][Pt][Cl]` [cisplatin] + NC(=O)Nc1cc(-c2cccc(F)c2)sc1C(=O)N[C@H]1CCCNC1 [AZD7762] (first compound 8 µM, partner dose 0.1 µM) was tested, and the cell count was 66%. In the case of `N.N.[Cl][Pt][Cl]` [cisplatin] + C[C@@H]1CCN(C(=O)CC#N)C[C@@H]1N(C)c1ncnc2[nH]ccc12 [CP690550] (first compound 8 µM, partner dose 5 µM), the cell count is reported as 90.5%. In the case of `C[C@]12O[C@H](C[C@]1(O)CO)n1c3ccccc3c3c4c(c5c6ccccc6n2c5c31)CNC4=O` [Lestaurtinib] + O=C(Nc1cccc(Cl)c1)Nc1ncc(CCNc2ncnc3ccsc23)s1 [SNS314] (first compound 0.02 µM, partner dose 0.004 µM), the cell count is reported as 89.6%. For `C[C@]12O[C@H](C[C@]1(O)CO)n1c3ccccc3c3c4c(c5c6ccccc6n2c5c31)CNC4=O` [Lestaurtinib] + O=C(O)c1ccc(-c2c[nH]c3ncc(-c4ccccc4)cc23)cc1C1CCCC1 [GSK650394] (first compound 0.02 µM, partner dose 0.8 µM), the cell count was 95.3%. For `Cn1cc(C2=C(c3cn(C4CCN(Cc5ccccn5)CC4)c4ccccc34)C(=O)NC2=O)c2ccccc21` [Enzastaurin] + CN(NC(=O)CC(=O)NN(C)C(=S)c1ccccc1)C(=S)c1ccccc1 [STA4783] (first compound 4 µM, partner dose 0.03 µM), the cell count was 21.3%. For `Cn1cc(C2=C(c3cn(C4CCN(Cc5ccccn5)CC4)c4ccccc34)C(=O)NC2=O)c2ccccc21` [Enzastaurin] + Clc1ccc(Nc2nnc(Cc3ccncc3)c3ccccc23)cc1 [vatalanib] (first compound 4 µM, partner dose 10 µM), the cell count was 63.1%. `Cn1cc(C2=C(c3cn(C4CCN(Cc5ccccn5)CC4)c4ccccc34)C(=O)NC2=O)c2ccccc21` [Enzastaurin] + CCCCCCCCc1ccc(CCC(N)(CO)CO)cc1 [fingolimod] (first compound 4 µM, partner dose 10 µM) gave a cell count of 6.33%. `N.N.[Cl][Pt][Cl]` [cisplatin] + O=C(O)c1ccc(-c2c[nH]c3ncc(-c4ccccc4)cc23)cc1C1CCCC1 [GSK650394] (first compound 8 µM, partner dose 0.8 µM) was tested, and the cell count was 121%. `Cn1cc(C2=C(c3cn(C4CCN(Cc5ccccn5)CC4)c4ccccc34)C(=O)NC2=O)c2ccccc21` [Enzastaurin] + O=C(CCCCCCC(=O)Nc1ccccc1)NO [vorinostat] (first compound 4 µM, partner dose 0.4 µM) gave a cell count of 91.1%. `Cn1cc(C2=C(c3cn(C4CCN(Cc5ccccn5)CC4)c4ccccc34)C(=O)NC2=O)c2ccccc21` [Enzastaurin] + COc1ccc(C2=N[C@@H](c3ccc(Cl)cc3)[C@@H](c3ccc(Cl)cc3)N2C(=O)N2CCNC(=O)C2)c(OC(C)C)c1 [Nutlin-3] (first compound 4 µM, partner dose 0.5 µM) was tested, and the cell count was 136%. With `N.N.[Cl][Pt][Cl]` [cisplatin] + CS(=O)(=O)CCNCc1ccc(-c2ccc3ncnc(Nc4ccc(OCc5cccc(F)c5)c(Cl)c4)c3c2)o1 [lapatinib] (first compound 8 µM, partner dose 4 µM) the cell count was 119%. With `Cn1cc(C2=C(c3cn(C4CCN(Cc5ccccn5)CC4)c4ccccc34)C(=O)NC2=O)c2ccccc21` [Enzastaurin] + Nc1ccn([C@@H]2O[C@H](CO)[C@@H](O)C2(F)F)c(=O)n1 [gemcitabine] (first compound 4 µM, partner dose 0.002 µM) the cell count was 78.1%. In the case of `C[C@]12O[C@H](C[C@]1(O)CO)n1c3ccccc3c3c4c(c5c6ccccc6n2c5c31)CNC4=O` [Lestaurtinib] + NCC(=O)Nc1ccc(-n2nc(C(F)(F)F)cc2-c2ccc3c(ccc4ccccc43)c2)cc1 [OSU03012] (first compound 0.02 µM, partner dose 5 µM), the cell count is reported as 121%.

These compounds were tested on A375 in the same assay as above. Details: library dose: standard library concentration; 72 h.
In the case of `C[As](C)SC[C@H](NC(=O)CC[C@H](N)C(=O)O)C(=O)NCC(=O)O` [Darinaparsin] + Cc1nc(Nc2ncc(C(=O)Nc3c(C)cccc3Cl)s2)cc(N2CCN(CCO)CC2)n1 [dasatanib] (first compound 2 µM, partner dose 0.02 µM), the cell count is reported as 57.2%. `Cn1cc(C2=C(c3cn(C4CCN(Cc5ccccn5)CC4)c4ccccc34)C(=O)NC2=O)c2ccccc21` [Enzastaurin] + C[C@]12O[C@H](C[C@]1(O)CO)n1c3ccccc3c3c4c(c5c6ccccc6n2c5c31)CNC4=O [Lestaurtinib] (first compound 4 µM, partner dose 0.02 µM) showed a cell count of 86.9%. For `Cn1cc(C2=C(c3cn(C4CCN(Cc5ccccn5)CC4)c4ccccc34)C(=O)NC2=O)c2ccccc21` [Enzastaurin] + COCC[n+]1c2c(n(Cc3cnccn3)c1C)C(=O)c1ccccc1C2=O [YM155] (first compound 4 µM, partner dose 0.002 µM), the cell count was 64.1%. Compound `C[As](C)SC[C@H](NC(=O)CC[C@H](N)C(=O)O)C(=O)NCC(=O)O` [Darinaparsin] + O=C(Nc1cccc(Cl)c1)Nc1ncc(CCNc2ncnc3ccsc23)s1 [SNS314] (first compound 2 µM, partner dose 0.004 µM) has a cell count of 84.2%. Work on `Cn1cc(C2=C(c3cn(C4CCN(Cc5ccccn5)CC4)c4ccccc34)C(=O)NC2=O)c2ccccc21` [Enzastaurin] + O=C(O)c1ccc(-c2c[nH]c3ncc(-c4ccccc4)cc23)cc1C1CCCC1 [GSK650394] (first compound 4 µM, partner dose 0.8 µM) yielded a cell count of 122%. In the case of `C[C@]12O[C@H](C[C@]1(O)CO)n1c3ccccc3c3c4c(c5c6ccccc6n2c5c31)CNC4=O` [Lestaurtinib] + COc1cc2c(Oc3ccc4[nH]c(C)cc4c3F)ncnc2cc1OCCCN1CCCC1 [cediranib] (first compound 0.02 µM, partner dose 2 µM), the cell count is reported as 103%. Compound `C[C@]12O[C@H](C[C@]1(O)CO)n1c3ccccc3c3c4c(c5c6ccccc6n2c5c31)CNC4=O` [Lestaurtinib] + CCCCCCCCc1ccc(CCC(N)(CO)CO)cc1 [fingolimod] (first compound 0.02 µM, partner dose 10 µM) has a cell count of 52%. `C[As](C)SC[C@H](NC(=O)CC[C@H](N)C(=O)O)C(=O)NCC(=O)O` [Darinaparsin] + Cn1nnc2c(C(N)=O)ncn2c1=O [temozolomide] (first compound 2 µM, partner dose 10 µM) showed a cell count of 91.7%. `N.N.[Cl][Pt][Cl]` [cisplatin] + O=C(Nc1cccc(Cl)c1)Nc1ncc(CCNc2ncnc3ccsc23)s1 [SNS314] (first compound 8 µM, partner dose 0.004 µM) was tested, and the cell count was 95.7%. `N.N.[Cl][Pt][Cl]` [cisplatin] + C=C(c1ccc(C(=O)O)cc1)c1cc2c(cc1C)C(C)(C)CCC2(C)C [Bexarotene] (first compound 8 µM, partner dose 10 µM) showed a cell count of 78.7%. Work on `C[C@]12O[C@H](C[C@]1(O)CO)n1c3ccccc3c3c4c(c5c6ccccc6n2c5c31)CNC4=O` [Lestaurtinib] + COc1ccc(Cl)c(Nc2nc3ccccc3nc2NS(=O)(=O)c2cccc(NC(=O)C(C)(C)N)c2)c1 [XL147] (first compound 0.02 µM, partner dose 4 µM) yielded a cell count of 83.3%. Work on `C[C@]12O[C@H](C[C@]1(O)CO)n1c3ccccc3c3c4c(c5c6ccccc6n2c5c31)CNC4=O` [Lestaurtinib] + CC(=O)c1c(C)c2cnc(Nc3ccc(N4CCNCC4)cn3)nc2n(C2CCCC2)c1=O [palbociclib] (first compound 0.02 µM, partner dose 0.2 µM) yielded a cell count of 77.3%. For `C[C@]12O[C@H](C[C@]1(O)CO)n1c3ccccc3c3c4c(c5c6ccccc6n2c5c31)CNC4=O` [Lestaurtinib] + CS(=O)(=O)CCNCc1ccc(-c2ccc3ncnc(Nc4ccc(OCc5cccc(F)c5)c(Cl)c4)c3c2)o1 [lapatinib] (first compound 0.02 µM, partner dose 4 µM), the cell count was 147%. With `C[C@]12O[C@H](C[C@]1(O)CO)n1c3ccccc3c3c4c(c5c6ccccc6n2c5c31)CNC4=O` [Lestaurtinib] + N.N.[Cl][Pt][Cl] [cisplatin] (first compound 0.02 µM, partner dose 8 µM) the cell count was 86.8%. Compound `N.N.[Cl][Pt][Cl]` [cisplatin] + Cn1nnc2c(C(N)=O)ncn2c1=O [temozolomide] (first compound 8 µM, partner dose 10 µM) has a cell count of 89.3%. `N.N.[Cl][Pt][Cl]` [cisplatin] + C[C@]1(c2nc3c(C(N)=O)cccc3[nH]2)CCCN1 [Veliparib] (first compound 8 µM, partner dose 7 µM) gave a cell count of 76.4%. `Cn1cc(C2=C(c3cn(C4CCN(Cc5ccccn5)CC4)c4ccccc34)C(=O)NC2=O)c2ccccc21` [Enzastaurin] + Cc1cc(N2CCOCC2)cc2[nH]c(-c3c(NC[C@@H](O)c4cccc(Cl)c4)cc[nH]c3=O)nc12 [BMS536924] (first compound 4 µM, partner dose 1 µM) showed a cell count of 92.4%.
